Results published in paper PMC4336329 (PLoS ONE, 2015).
Among all 310,000 compounds or so, about 14,000 (4.5%) showed an effect of 50% or more. Effects have a minus sign here. The list shows a part of the results.

These compounds were tested against human ether-à-go-go-related gene (hERG) potassium channel (human, UniProt Q12809) (assay: primary screen, population patch clamp on CHO cells stably expressing hERG).
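Note: peak tail current of the secondary pulse compared with the same well before compound.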

Chain of human ether-à-go-go-related gene (hERG) potassium channel (Q12809 whole entry, looked up): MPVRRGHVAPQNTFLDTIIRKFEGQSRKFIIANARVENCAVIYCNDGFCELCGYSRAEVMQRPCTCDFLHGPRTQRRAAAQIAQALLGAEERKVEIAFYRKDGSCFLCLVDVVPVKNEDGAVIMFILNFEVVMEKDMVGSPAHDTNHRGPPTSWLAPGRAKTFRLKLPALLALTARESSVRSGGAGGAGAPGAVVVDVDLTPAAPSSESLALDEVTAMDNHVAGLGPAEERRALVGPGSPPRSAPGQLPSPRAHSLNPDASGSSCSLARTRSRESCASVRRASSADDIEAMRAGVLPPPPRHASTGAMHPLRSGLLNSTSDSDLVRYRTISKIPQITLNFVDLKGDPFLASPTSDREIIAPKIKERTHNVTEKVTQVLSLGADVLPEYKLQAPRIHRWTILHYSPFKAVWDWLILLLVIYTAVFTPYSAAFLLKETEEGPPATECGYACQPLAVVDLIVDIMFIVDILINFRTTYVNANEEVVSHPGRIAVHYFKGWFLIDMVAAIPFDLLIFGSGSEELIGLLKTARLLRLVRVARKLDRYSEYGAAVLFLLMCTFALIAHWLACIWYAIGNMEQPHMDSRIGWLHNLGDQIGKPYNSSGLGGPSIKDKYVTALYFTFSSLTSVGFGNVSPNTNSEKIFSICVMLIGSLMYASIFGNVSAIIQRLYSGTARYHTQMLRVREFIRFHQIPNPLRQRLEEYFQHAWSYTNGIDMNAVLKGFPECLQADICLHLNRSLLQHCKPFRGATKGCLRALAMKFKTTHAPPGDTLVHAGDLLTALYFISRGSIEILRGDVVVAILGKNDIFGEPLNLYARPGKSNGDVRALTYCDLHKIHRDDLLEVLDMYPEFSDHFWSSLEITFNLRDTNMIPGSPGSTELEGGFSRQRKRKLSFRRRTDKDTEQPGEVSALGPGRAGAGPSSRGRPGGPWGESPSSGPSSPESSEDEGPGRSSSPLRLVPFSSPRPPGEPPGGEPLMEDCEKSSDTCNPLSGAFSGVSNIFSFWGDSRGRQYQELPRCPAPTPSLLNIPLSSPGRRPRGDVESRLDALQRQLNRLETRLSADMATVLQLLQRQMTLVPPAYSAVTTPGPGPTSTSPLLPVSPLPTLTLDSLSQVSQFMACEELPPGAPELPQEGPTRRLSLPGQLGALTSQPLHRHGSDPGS

Q: Which “hERG current change (%, negative = inhibition) at 10uM” value does the source give for `C/C(CC(c1ccccc1)c1c(O)c2ccccc2oc1=O)=N\Nc1ccc([N+](=O)[O-])cc1[N+](=O)[O-]` (centres unmarked) here?
A: Its value is -0.104%.

Q: With `O=C(Nc1ccc(N2CCN(C(=O)c3ccco3)CC2)c(Cl)c1)c1c(F)c(F)c(F)c(F)c1F` as the compound, how does the “hERG current change (%, negative = inhibition) at 10uM” value read?
A: Its value is -32.1%.

Q: Which “hERG current change (%, negative = inhibition) at 10uM” value does the source give for `CC(C)C(=O)Nc1cccc(C(=O)Nc2ccc(S(=O)(=O)Nc3nccs3)cc2)c1` here?
A: Its value is 8.32%.

Q: Which “hERG current change (%, negative = inhibition) at 10uM” value does the source give for `O=C(Nc1ccncc1)c1cc2ccccc2o1` here?
A: Its value is -15%.

Q: For `Cc1cc(C)nc(Sc2ccc([N+](=O)[O-])cc2[N+](=O)[O-])n1`, which “hERG current change (%, negative = inhibition) at 10uM” value is on record?
A: The value was 6.47%.

Q: Which “hERG current change (%, negative = inhibition) at 10uM” value does the source give for `CCOc1cc(C(C(=O)NCC2CCCO2)N(C(=O)Cn2nnc3ccccc32)c2ccccc2OC)ccc1O` (centres unmarked) here?
A: Its value is 1.54%.

Q: With `COCCNC(=O)NC(=O)COC(=O)C1(c2ccc(Cl)cc2)CC1` as the compound, how does the “hERG current change (%, negative = inhibition) at 10uM” value read?
A: Its value is 21.4%.

Q: How did the “hERG current change (%, negative = inhibition) at 10uM” value turn out when `O=C(/C=C/c1ccccc1)c1c(O)n(CCc2ccccc2)c(=O)[nH]c1=O` was run?
A: Its value is 3.08%.

Q: How did the “hERG current change (%, negative = inhibition) at 10uM” value turn out when `CCOC(=O)NC1(NC(C)C)Oc2ccccc2O1` was run?
A: The value was 14.2%.

Q: For `O=C(CN1CCN(Cc2ccc(Cl)cc2)C1=O)NCCCN1CCOCC1`, which “hERG current change (%, negative = inhibition) at 10uM” value is on record?
A: The value was -2.85%.

Q: For `COc1ccc(CN2[C@@H](CC(=O)O)c3cc(C(F)(F)F)ccc3S2(=O)=O)cc1`, which “hERG current change (%, negative = inhibition) at 10uM” value is on record?
A: Its value is 16.9%.

Q: With `O=C(COc1ccc(Br)cc1)Nc1nnc(-c2cccnc2)s1` as the compound, how does the “hERG current change (%, negative = inhibition) at 10uM” value read?
A: The value was 7.67%.

Q: For `CC1CN=C(NCCc2ccccc2)S1` (centres unmarked), which “hERG current change (%, negative = inhibition) at 10uM” value is on record?
A: The value was 2%.

Q: `O=C(NCc1ccc2c(c1)OCO2)c1ccc(=O)[nH]c1` was tested. Which “hERG current change (%, negative = inhibition) at 10uM” value did it give?
A: The value was 1.61%.

Q: Which “hERG current change (%, negative = inhibition) at 10uM” value does the source give for `Cc1cc(C)n2nc(CNS(=O)(=O)c3ccc([N+](=O)[O-])cc3)nc2n1` here?
A: Its value is -18.6%.

Q: With `O=C(COC(=O)c1ccc2[nH]c3c(c2c1)CCCC3)Nc1ccc(Cl)cc1Cl` as the compound, how does the “hERG current change (%, negative = inhibition) at 10uM” value read?
A: Its value is -2.62%.

Q: For `Cc1cccn2c(CN[C@@H]3CCCC[C@H]3c3ccccc3)c(C(=O)N3CCOCC3)nc12`, which “hERG current change (%, negative = inhibition) at 10uM” value is on record?
A: Its value is -12.9%.

Q: How did the “hERG current change (%, negative = inhibition) at 10uM” value turn out when `CCOC(=O)C1CCCN(Cc2c(C(=O)N3CCOCC3)nc3ccccn23)C1` (centres unmarked) was run?
A: The value was 8.12%.

Q: With `COc1cccc(OC)c1OCCOc1ccccc1OC(C)C` as the compound, how does the “hERG current change (%, negative = inhibition) at 10uM” value read?
A: The value was -24.4%.

Q: For `O=C(NC(=S)Nc1ccccc1N1CCOCC1)c1ccco1`, which “hERG current change (%, negative = inhibition) at 10uM” value is on record?
A: The value was 9.73%.

Q: For `CCC(=O)O[C@@H]1[C@@H](OC(C)=O)[C@@]2(O)C(C[C@H](O)C2(C)C)[C@](C)(O)[C@H]2CC[C@@H]3[C@@H](O)[C@]12C[C@@]3(C)O` (some centres unmarked), which “hERG current change (%, negative = inhibition) at 10uM” value is on record?
A: The value was 1.61%.

Q: `CC(C)CN1C(=O)/C(=C/c2cccs2)NC1=S` was tested. Which “hERG current change (%, negative = inhibition) at 10uM” value did it give?
A: Its value is 21.3%.

Q: How did the “hERG current change (%, negative = inhibition) at 10uM” value turn out when `CCn1c(C(=O)N2CCC(C(=O)N3CCN(c4ccccn4)CC3)CC2)cc2sccc21` was run?
A: Its value is -60.5%.

Q: With `CCOC(=O)c1ccc(N2C(=O)C=CC2=O)cc1` as the compound, how does the “hERG current change (%, negative = inhibition) at 10uM” value read?
A: The value was -5.04%.

Q: For `O=C(COc1ccccc1)NC1CCN(Cc2ccccc2)CC1`, which “hERG current change (%, negative = inhibition) at 10uM” value is on record?
A: Its value is -50.4%.

Q: Which “hERG current change (%, negative = inhibition) at 10uM” value does the source give for `CCc1ccc(NC(=O)C2CCN(S(=O)(=O)c3ccc4c(c3)NC(=O)CO4)CC2)cc1` here?
A: Its value is 9.11%.

Q: With `CCN(CC(=O)NC1CC1)S(=O)(=O)c1ccc(C)cc1` as the compound, how does the “hERG current change (%, negative = inhibition) at 10uM” value read?
A: Its value is 1.04%.

Q: For `O=C(NC1CC1)C1=C[C@@H](c2csc3ccccc23)C[C@@H](OCCCCO)O1`, which “hERG current change (%, negative = inhibition) at 10uM” value is on record?
A: The value was -40%.

Q: How did the “hERG current change (%, negative = inhibition) at 10uM” value turn out when `O=C(CC1NCCNC1=O)Nc1ccc([N+](=O)[O-])cc1` (centres unmarked) was run?
A: The value was 5.02%.

Q: For `Cn1c(N)c(C(=O)COC(=O)CCOc2ccc(C(C)(C)C)cc2)c(=O)n(C)c1=O`, which “hERG current change (%, negative = inhibition) at 10uM” value is on record?
A: The value was -60.6%.

Q: Which “hERG current change (%, negative = inhibition) at 10uM” value does the source give for `CN(C)/C=C1\SC(=S)N(c2ccc(Br)cc2)C1=O` here?
A: Its value is -4.75%.

Q: `CC(C)(C)c1ccc(-c2nnc(SCC(=O)c3ccc4c(c3)OCCO4)o2)cc1` was tested. Which “hERG current change (%, negative = inhibition) at 10uM” value did it give?
A: The value was 12.3%.

Q: Which “hERG current change (%, negative = inhibition) at 10uM” value does the source give for `C[C@]1(C(=O)O)C=C[C@@H](Cc2ccccc2)N1C(=O)c1ccccc1` here?
A: Its value is 11.8%.

Q: `CC(=N\NC(=O)c1ccccc1)/C(=N/O)C(=O)Nc1ccccc1` was tested. Which “hERG current change (%, negative = inhibition) at 10uM” value did it give?
A: The value was 7.51%.

Q: Which “hERG current change (%, negative = inhibition) at 10uM” value does the source give for `COc1ccc(N2C(=O)CCC2(C#N)c2ccc(Br)cc2)cc1` (centres unmarked) here?
A: The value was -19.6%.

Q: Which “hERG current change (%, negative = inhibition) at 10uM” value does the source give for `CSc1ccc(C2NC(=O)CCC2[N+](=O)[O-])cc1` (centres unmarked) here?
A: Its value is -6.37%.

Q: With `Cc1ccccc1OCCCC(=O)NCc1ccco1` as the compound, how does the “hERG current change (%, negative = inhibition) at 10uM” value read?
A: The value was 1.25%.

Q: With `S=C(Nc1cccc(Cl)c1)Nc1cccc2cnccc12` as the compound, how does the “hERG current change (%, negative = inhibition) at 10uM” value read?
A: Its value is -11.2%.

Q: `Cc1ccc2c(c1)CN1CN2Cc2cc(C)ccc21` was tested. Which “hERG current change (%, negative = inhibition) at 10uM” value did it give?
A: The value was -2.19%.

Q: With `C[C@@H]([C@@H](O)c1ccccc1)N(C)C(=O)Cc1ccccc1` as the compound, how does the “hERG current change (%, negative = inhibition) at 10uM” value read?
A: The value was 4.06%.

Q: How did the “hERG current change (%, negative = inhibition) at 10uM” value turn out when `COc1cc(OC)cc(C(=O)NCC(=O)Nc2ccc(C)c(Cl)c2)c1` was run?
A: Its value is 16.6%.

Q: How did the “hERG current change (%, negative = inhibition) at 10uM” value turn out when `CC(=O)Nc1cc(N=Cc2ccc(O)cc2O)c(Cl)cc1Cl` was run?
A: Its value is 13.4%.

Q: Which “hERG current change (%, negative = inhibition) at 10uM” value does the source give for `N#C/C(=C\c1cccnc1)C(=O)Nc1ccccc1[N+](=O)[O-]` here?
A: The value was -2.35%.

Q: Which “hERG current change (%, negative = inhibition) at 10uM” value does the source give for `O=C(/C=C/c1ccccc1O)c1ccc(Cl)cc1` here?
A: The value was 25.3%.
